Reference: PubChem BioAssay AID504637 (National Center for Advancing Translational Sciences (NCATS), 2011)
In all, about 1,100 compounds went through this assay and about 430 (39%) were called active. So high a share suggests a set chosen from earlier hits. Inconclusive means that the source gave no clear call. Such entries were picked first, then a sample of the others. The call rests on the fitted dose curve; in most records, active means well fitted inhibition curve with a large enough effect; inconclusive means small, poorly fitted or top-dose-only effect, or effect the other way; inactive means flat fitted curve, though single readings scatter. Potencies of inconclusive entries are doubtful fits and often do not repeat.

Each compound was assayed against ATP-dependent 6-phosphofructokinase (Trypanosoma brucei brucei) (UniProt O15648) (assay: Inhibitors of T. brucei phosphofructokinase: Hit Validation). Details: purified T. brucei PFK, ADP-Glo luminescence, 45 min; series mostly up to 57.5 µM; activity change, negative = inhibition: at the top concentration.
UniProt O15648, sequence (O15648 whole entry, looked up): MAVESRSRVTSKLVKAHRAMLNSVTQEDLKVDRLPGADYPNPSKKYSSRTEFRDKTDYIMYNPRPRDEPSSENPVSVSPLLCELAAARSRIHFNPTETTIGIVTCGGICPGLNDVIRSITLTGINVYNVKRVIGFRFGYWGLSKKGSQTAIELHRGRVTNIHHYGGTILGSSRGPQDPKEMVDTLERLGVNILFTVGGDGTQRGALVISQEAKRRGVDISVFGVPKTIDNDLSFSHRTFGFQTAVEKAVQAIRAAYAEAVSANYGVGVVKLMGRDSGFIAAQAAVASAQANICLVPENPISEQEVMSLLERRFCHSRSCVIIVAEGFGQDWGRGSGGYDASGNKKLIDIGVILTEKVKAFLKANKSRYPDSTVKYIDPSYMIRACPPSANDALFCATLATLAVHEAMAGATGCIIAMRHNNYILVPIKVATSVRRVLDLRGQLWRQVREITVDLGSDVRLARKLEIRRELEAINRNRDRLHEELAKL
Further: nearly all actives have a fitted effect of over 60% in size.
Potency means the concentration at half of the fitted maximal effect; tags describe the fitted curve by direction and shape.
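Wherever activity change, negative = inhibition is given: plate controls were full PFK enzyme control for no effect and no enzyme control for full effect.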

| Compound | activity change, negative = inhibition | Potency |
| --- | --- | --- |
| COc1cc(/C=C(\C#N)C(=O)c2ccc(O)c(O)c2)cc(I)c1O | inactive: -17.3% |  |
| O=S(=O)(c1ccc(NC(=S)NCc2ccc(F)cc2)cc1)N1CCOCC1 |  | active: 30.1 µM |
| O=S(=O)(Nc1ccccc1)c1cccc2nsnc12 |  | inconclusive: 33.8 µM [inhibitor, single point] |
| Cc1nc(SCC(=O)c2ccc(F)cc2)n[nH]1 |  | inconclusive: 33.8 µM [inhibitor, single point] |
| CSc1ccc(NC(=O)Nc2ccc(C(=O)NCC(=O)O)cc2)cc1 |  | inconclusive: 15.1 µM [inhibitor, partial curve] |
| CCNc1nc(NCC)n2c(SCC(=O)Nc3ccc(OC(F)F)cc3)nnc2n1 |  | active: 8.49 µM |
| CC1=C(C(=O)Nc2ccccc2C(F)(F)F)C(c2ccc(C)s2)NC(=S)N1 (stereo unspecified) | inactive: 4.17% |  |
| S=c1[nH]nc(-c2ccccc2)n1/N=C/c1c[nH]c2ccccc12 |  | inconclusive: 9.53 µM [inhibitor, partial curve] |
| Cn1sc(=O)c2cc(S(=O)(=O)NC3CC3)ccc21 |  | active: 21.3 µM |
| O=C(CSC1=NS(=O)(=O)c2cc(Cl)ccc2N1)Nc1cccc(F)c1 |  | inconclusive: 37.9 µM [inhibitor, single point] |
| CN1C(=S)SC(N(O)C(=O)Nc2ccc(Cl)c(Cl)c2)C1(C)C (stereo unspecified) |  | inconclusive: 37.9 µM [inhibitor, single point] |
| Cc1cc(C)c2c(=O)n(CC(=O)N3CCC(N4CCCCC4)CC3)sc2n1 |  | active: 3.01 µM |
| CC(=O)N[C@@H]1c2c(ccc3ccccc23)OC[C@@H]1COC(C)=O |  | inconclusive: 15.1 µM [activator, partial curve] |
| Cc1cccc(C(=O)OCC(=O)c2ccc(CC(=O)N3CCOCC3)s2)c1C | inactive: -17.4% |  |
| O=C(O)c1ccccc1C(=O)Nc1ccc(Br)c(C(F)(F)F)c1 | inactive: -0.232% |  |
| Cc1nnc(SCc2ccc(Cl)c(Cl)c2)s1 |  | active: 13.5 µM |
| Cc1cccc(NCc2ccc([N+](=O)[O-])s2)c1 |  | inconclusive: 30.1 µM [inhibitor, partial curve] |
| O=C(COC(=O)c1ccccc1OC(F)F)Nc1ccc2[nH]c(=O)[nH]c2c1 |  | inconclusive: 16.9 µM [inhibitor, partial curve] |
| O=C(O)C1C2C=CC(C2)C1C(=O)Nc1ccc(Cl)c(Cl)c1 (stereo unspecified) | inactive: -13.2% |  |
| O=C(NCCN1CCOCC1)c1ccc(CSc2nc3ccncc3n2Cc2ccc(F)cc2)cc1 |  | inconclusive: 30.1 µM [inhibitor, partial curve] |
| N#Cc1sc(NCc2cccc(Cl)c2)nc1Cl |  | active: 30.1 µM |
